Measured values as given in the supplement of paper PMC7238544.
Where a name gives a salt, the structure may show the parent alone. ± gives the standard deviation of the averaged measurements. Some of the results follow.

How the values were obtained:
Settings in all cases: priming compound concentration 100 µM
[1] = tested on: hAMSC donor 1; test: Hoechst total cell count ratio vs vehicle control; higher = more cells (less toxicity)
[2] = tested on: hAMSC donor 2; test: as above
[3] = tested on: hAMSC donor 1; test: transgenic luciferase activity (RLU/mg protein) fold change vs vehicle control (ratio); higher = more transgene expression
[4] = tested on: hAMSC donor 2; test: as above
[5] = tested on: hAMSC donor 1; test: transfection efficiency (EGFP+ cells / Hoechst count) fold change vs vehicle control (ratio); hAMSC are human adipose-derived mesenchymal stem cells given an EGFP-luciferase plasmid by lipofection; higher = enhanced transfection
[6] = tested on: hAMSC donor 2; test: as above
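For Hoechst total cell count ratio vs vehicle control in this document: compound added 30 min before Lipofectamine 3000 lipoplex delivery, triplicate-well means expressed against DMSO vehicle control wells of the same 96-well plate.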
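For transfection efficiency (EGFP+ cells / Hoechst count) fold change vs vehicle control in this document: compounds added 30 min before Lipofectamine 3000 lipoplex transfection, triplicate means relative to DMSO vehicle wells on the same plate, luciferase RLU normalized to BCA total protein.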
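For transgenic luciferase activity (RLU/mg protein) fold change vs vehicle control in this document: compounds in DMSO added 30 min before Lipofectamine 3000 transfection of pEGFP-Luc in 96-well plates, values are means of triplicate wells over DMSO vehicle wells on the same plate.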

Row | Compound | Hoechst total cell count ratio [1] | Hoechst total cell count ratio [2] | transgenic luciferase activity [3] | transgenic luciferase activity [4] | transfection efficiency [5] | transfection efficiency [6]
1 | Nc1nc2c(ncn2COC(CO)CO)c(=O)[nH]1 [Ganciclovir] | 1.15 ± 0.015 | 1.44 ± 0.17 | 0.993 ± 0.67 | 0.668 ± 0.19 | 1.09 ± 0.36 | 1.02 ± 0.27
2 | OC[C@H]1O[C@@H](Oc2cc(O)cc(/C=C/c3ccc(O)cc3)c2)[C@H](O)[C@@H](O)[C@@H]1O [Piceid] | 1.29 ± 0.098 | 0.923 ± 0.2 | 0.595 ± 0.15 | 0.54 ± 0.19 | 1.07 ± 0.2 | 1.39 ± 0.19
3 | Nc1c2c(nc3ccccc13)CCCC2 [Tacrine hydrochloride] | 1.43 ± 0.2 | 1.03 ± 0.12 | 0.437 ± 0.18 | 0.555 ± 0.15 | 0.835 ± 0.072 | 0.926 ± 0.12
4 | CC(CN1c2ccccc2Sc2ccccc21)N(C)C (stereo not drawn) [Promethazine hydrochloride] | 0.865 ± 0.062 | 0.301 ± 0.16 | 0.212 ± 0.2 | 0.301 ± 0.08 | 0.192 ± 0.084 | 0.593 ± 0.21
5 | CC[C@@H](CO)NCCN[C@@H](CC)CO [Ethambutol] | 1.22 ± 0.077 | 1.28 ± 0.15 | 0.69 ± 0.36 | 1.2 ± 0.033 | 0.987 ± 0.38 | 0.967 ± 0.24
6 | CN(C)CCC(c1ccc(Cl)cc1)c1ccccn1 (stereo not drawn) [Chlorpheniramine maleate] | 1.28 ± 0.065 | 1.237 ± 0.011 | 0.357 ± 0.017 | 0.286 ± 0.1 | 0.778 ± 0.018 | 0.712 ± 0.17
7 | CN(CCOc1ccc(NS(C)(=O)=O)cc1)CCc1ccc(NS(C)(=O)=O)cc1 [Dofetilide] | 1.33 ± 0.062 | 1.36 ± 0.55 | 0.957 ± 0.22 | 0.69 ± 0.17 | 0.701 ± 0.084 | 0.934 ± 0.27
8 | Cc1c(OCC(F)(F)F)ccnc1C[S+]([O-])c1nc2ccccc2[nH]1 (stereo not drawn) [Lansoprazole] | 1.79 ± 0.27 | 1.17 ± 0.038 | 2.02 ± 0.86 | 1.58 ± 0.24 | 1.03 ± 0.2 | 0.734 ± 0.051
9 | CS(=O)(=O)OCCCCOS(C)(=O)=O [Busulfan] | 1.1 ± 0.086 | 1.48 ± 0.096 | 0.848 ± 0.38 | 3 ± 0.65 | 0.964 ± 0.14 | 1.03 ± 0.12
10 | COc1cc(C)c(/C=C/C(C)=C/C=C/C(C)=C/C(=O)O)c(C)c1C [Acitretin] | 1.71 ± 0.29 | 1.95 ± 0.45 | 0.158 ± 0.051 | 0.333 ± 0.04 | 0.174 ± 0.042 | 0.372 ± 0.12
11 | Cc1ccc(NC(=O)c2ccc(CN3CCN(C)CC3)cc2)cc1Nc1nccc(-c2cccnc2)n1 [Imatinib mesylate] | 0.564 ± 0.025 | 0.538 ± 0.08 | 0.359 ± 0.16 | 0.61 ± 0.05 | 0.803 ± 0.18 | 0.782 ± 0.094
12 | N[C@@H](Cc1cc(I)c(Oc2cc(I)c(O)c(I)c2)c(I)c1)C(=O)O [L-Thyroxine] | 1.01 ± 0.13 | 0.46 ± 0.026 | 0.957 ± 0.64 | 0.352 ± 0.041 | 1.66 ± 0.62 | 1.21 ± 0.1
13 | Cc1noc(NS(=O)(=O)c2ccc(N)cc2)c1C [Sulfisoxazole] | 1.22 ± 0.036 | 0.815 ± 0.32 | 0.936 ± 0.21 | 0.493 ± 0.083 | 1.12 ± 0.21 | 1.09 ± 0.22
14 | CC(=O)OCC(=O)[C@@]1(O)CC[C@H]2[C@@H]3CCC4=CC(=O)CC[C@]4(C)[C@H]3[C@@H](O)C[C@@]21C [Cortisol 21-acetate] | 1.3 ± 0.18 | 1.19 ± 0.31 | 7.16 ± 0.35 | 3.89 ± 0.89 | 1.8 ± 0.27 | 1.78 ± 0.47
15 | OC[C@H]1O[C@@H](n2cnc3c(N[C@H]4CCC[C@@H]4O)ncnc32)[C@H](O)[C@@H]1O | 1.72 ± 0.41 | 1.5 ± 0.35 | 6.09 ± 0.52 | 0.466 ± 0.028 | 1.27 ± 0.43 | 1.54 ± 0.28
16 | CNCCCCOc1ccccc1Cc1ccccc1 [Bifemelane hydrochloride] | 0.111 ± 0.025 | 0.101 ± 0.025 | 0.0245 ± 0.017 | 0.0527 ± 0.027 | 0.655 ± 0.57 | 0.476 ± 0.23
17 | CC(C)c1ccc2c(c1)c(SC(C)(C)C)c(CC(C)(C)C(=O)O)n2Cc1ccc(Cl)cc1 | 1.26 ± 0.1 | 1.3 ± 0.089 | 0.195 ± 0.086 | 0.317 ± 0.016 | 0.373 ± 0.1 | 0.349 ± 0.096
18 | C[C@]12CCC(=O)C=C1CC[C@@H]1[C@@H]2[C@@H](O)C[C@@]2(C)[C@H]1CC[C@]2(O)C(=O)COC(=O)CCC(=O)O [Hydrocortisone hemisuccinate] | 1.43 ± 0.15 | 0.973 ± 0.04 | 10.8 ± 2.7 | 1.63 ± 0.17 | 2.12 ± 0.32 | 1.26 ± 0.22
19 | CC[C@@]1(O)C(=O)OCc2c1cc1n(c2=O)Cc2cc3c(CN(C)C)c(O)ccc3nc2-1 [Topotecan hydrochloride] | 0.588 ± 0.13 | 0.4 ± 0.049 | 0.922 ± 0.52 | 0.254 ± 0.13 | 1.47 ± 0.16 | 1.03 ± 0.1
20 | O=C1c2cccc3c2[C@H](CCC3)CN1[C@@H]1CN2CCC1CC2 [Palonosetron hydrochloride] | 1.43 ± 0.1 | 1.84 ± 0.2 | 0.593 ± 0.35 | 0.937 ± 0.26 | 0.96 ± 0.12 | 0.883 ± 0.1
21 | CSc1nc2cc(Cl)c(Oc3cccc(Cl)c3Cl)cc2[nH]1 [Triclabendazole] | 1.14 ± 0.039 | 0.942 ± 0.17 | 0.468 ± 0.21 | 1.1 ± 0.49 | 0.989 ± 0.35 | 0.892 ± 0.21
22 | Cc1cccc(C)c1NC(=O)C1CCCCN1C (stereo not drawn) [Mepivacaine hydrochloride] | 1.32 ± 0.11 | 1.6 ± 0.47 | 0.664 ± 0.65 | 0.866 ± 0.23 | 0.957 ± 0.19 | 1.21 ± 0.65

Row | Compound | Hoechst total cell count ratio [1] | Hoechst total cell count ratio [2] | transgenic luciferase activity [3] | transgenic luciferase activity [4] | transfection efficiency [5] | transfection efficiency [6]
23 | C[C@]12CCC(=O)C=C1CC[C@@H]1[C@@H]2C(=O)C[C@@]2(C)[C@H]1CC[C@]2(O)C(=O)CO [Cortisone] | 1.49 ± 0.26 | 1.26 ± 0.51 | 0.371 ± 0.17 | 0.163 ± 0.041 | 0.859 ± 0.084 | 1.04 ± 0.33
24 | CCCCN1CCCC1CNC(=O)c1cc(C#N)c2ccccc2c1OC (stereo not drawn) [Nafadotride] | 1.16 ± 0.066 | 1.01 ± 0.064 | 0.134 ± 0.078 | 0.892 ± 0.074 | 0.964 ± 0.46 | 1.18 ± 0.23
25 | C[C@@](Cc1ccc(O)c(O)c1)(NN)C(=O)O [Carbidopa] | 1.1 ± 0.016 | 1.14 ± 0.59 | 0.779 ± 0.21 | 1.06 ± 0.27 | 1.58 ± 0.15 | 0.981 ± 0.2
26 | CC(C)n1c(/C=C/C(O)CC(O)CC(=O)O)c(-c2ccc(F)cc2)c2ccccc21 (stereo not drawn) [Fluvastatin] | 0.757 ± 0.11 | 0.454 ± 0.061 | 0.415 ± 0.14 | 0.59 ± 0.25 | 2.44 ± 0.56 | 1.14 ± 0.16
27 | C=C[C@H]1CN2CC[C@H]1C[C@@H]2[C@@H](O)c1ccnc2ccc(OC)cc12 [Quinidine] | 1.29 ± 0.17 | 1.41 ± 0.27 | 0.348 ± 0.27 | 0.726 ± 0.23 | 1.13 ± 0.28 | 0.74 ± 0.14
28 | CC(C)c1nc(CN(C)C(=O)N[C@H](C(=O)N[C@@H](Cc2ccccc2)C[C@H](O)[C@H](Cc2ccccc2)NC(=O)OCc2cncs2)C(C)C)cs1 [Ritonavir] | 1.56 ± 0.25 | 1.27 ± 0.025 | 0.316 ± 0.15 | 1.22 ± 0.34 | 0.679 ± 0.18 | 0.824 ± 0.18
29 | COc1cc([C@@H]2c3cc4c(cc3[C@@H](O[C@@H]3O[C@@H]5CO[C@@H](C)O[C@H]5[C@H](O)[C@H]3O)[C@H]3COC(=O)[C@H]23)OCO4)cc(OC)c1O [Etoposide] | 0.639 ± 0.23 | 0.42 ± 0.13 | 0.373 ± 0.26 | 0.693 ± 0.24 | 1.21 ± 0.38 | 0.758 ± 0.36
30 | COc1cc(NC(C)CCCN)c2ncccc2c1 (stereo not drawn) [Primaquine diphosphate] | 0.134 ± 0.1 | 0.193 ± 0.019 | 0.00687 ± 0.0013 | 0.000954 ± 0.00068 | 0.729 ± 0.25 | 1.05 ± 0.65
31 | C#C[C@]1(O)CC[C@H]2[C@@H]3CCC4=CC(=O)CC[C@@H]4[C@H]3CC[C@@]21CC [Levonorgestrel] | 1.13 ± 0.053 | 1.48 ± 0.29 | 1.03 ± 0.56 | 0.662 ± 0.26 | 1.01 ± 0.24 | 1.4 ± 0.5
32 | CC(=O)[C@@]1(O)CC[C@H]2[C@@H]3C[C@H](C)C4=CC(=O)C=C[C@]4(C)[C@@]3(F)[C@@H](O)C[C@@]21C [Fluorometholone] | 1.19 ± 0.046 | 0.989 ± 0.12 | 12.8 ± 11 | 6.27 ± 1.2 | 3.57 ± 0.42 | 2.91 ± 0.34
33 | CN(C)[C@@H]1C(O)=C(C(=O)NCN2CCCC2)C(=O)[C@@]2(O)C(O)=C3C(=O)c4c(O)cccc4[C@@](C)(O)[C@H]3C[C@@H]12 [Rolitetracycline] | 2.04 ± 0.24 | 1.12 ± 0.075 | 0.718 ± 0.15 | 0.302 ± 0.082 | 0.277 ± 0.061 | 0.291 ± 0.19
34 | COCC1=C(C(=O)OC(C)OC(=O)OC(C)C)N2C(=O)[C@@H](NC(=O)/C(=N\OC)c3csc(N)n3)[C@H]2SC1 (stereo partly drawn) [Cefpodoxime proxetil] | 1.31 ± 0.13 | 0.958 ± 0.21 | 1.14 ± 0.15 | 0.774 ± 0.27 | 0.942 ± 0.06 | 1.04 ± 0.086
35 | S=c1[nH]cnc2nc[nH]c12 [Mercaptopurine] | 1.08 ± 0.19 | 1.55 ± 0.16 | 0.692 ± 0.44 | 0.39 ± 0.11 | 0.966 ± 0.22 | 1.12 ± 0.19
36 | CCC(=O)NS(=O)(=O)c1ccc(-c2c(-c3ccccc3)noc2C)cc1 [Parecoxib sodium] | 0.858 ± 0.12 | 0.556 ± 0.096 | 0.573 ± 0.12 | 1.44 ± 0.45 | 1.52 ± 0.28 | 1.87 ± 0.13
37 | CC(C)(C(=O)O)c1ccc(C(O)CCCN2CCC(C(O)(c3ccccc3)c3ccccc3)CC2)cc1 (stereo not drawn) [Fexofenadine hydrochloride] | 1.11 ± 0.025 | 1.69 ± 0.35 | 0.711 ± 0.66 | 0.831 ± 0.079 | 0.992 ± 0.17 | 0.76 ± 0.085
38 | COC(=O)C1=C(C)NC(C)=C(C(=O)OC(C)C)C1c1cccc2nonc12 (stereo not drawn) [Isradipine] | 1.46 ± 0.18 | 1.02 ± 0.08 | 1.91 ± 0.66 | 2.15 ± 0.61 | 1.2 ± 0.098 | 1.56 ± 0.2
39 | CN(C)CCOC(c1ccc(Cl)cc1)c1ccccn1 (stereo not drawn) [Carbinoxamine maleate] | 1.464 ± 0.011 | 1.77 ± 0.27 | 0.519 ± 0.23 | 0.512 ± 0.18 | 1.29 ± 0.16 | 1.05 ± 0.039
40 | COC(=O)[C@H](c1ccccc1Cl)N1CCc2sccc2C1 [Clopidogrel] | 1.38 ± 0.098 | 1.87 ± 0.066 | 1.35 ± 0.5 | 0.63 ± 0.078 | 0.857 ± 0.062 | 0.692 ± 0.017
41 | O=C1CN(/N=C/c2ccc(-c3ccc([N+](=O)[O-])cc3)o2)C(=O)N1 [Dantrolene sodium] | 1.3 ± 0.18 | 1.98 ± 0.28 | 0.605 ± 0.1 | 0.852 ± 0.26 | 0.813 ± 0.36 | 0.718 ± 0.078
42 | COc1ccc(CC(C)NCC(O)c2ccc(O)c(NC=O)c2)cc1 (stereo not drawn) [Formoterol fumarate dihydrate] | 1.46 ± 0.34 | 1.2 ± 0.14 | 0.844 ± 0.34 | 0.466 ± 0.049 | 1.32 ± 0.26 | 0.836 ± 0.14
43 | COC(=O)C1=C(C)NC(C)=C(C(=O)OCCN(C)Cc2ccccc2)C1c1cccc([N+](=O)[O-])c1 (stereo not drawn) [Nicardipine hydrochloride] | 0.483 ± 0.057 | 0.535 ± 0.09 | 0.686 ± 0.34 | 0.401 ± 0.04 | 0.557 ± 0.12 | 0.536 ± 0.1
